According to the BET-seq Pho4 binding data (Le et al. 2018):
The list shows a part of the results. The energies were worked out here from pooled read counts, against the library average; single values are noisy.

Target: T1, Pho4 (S. cerevisiae) (UniProt P07270)
T1 sequence: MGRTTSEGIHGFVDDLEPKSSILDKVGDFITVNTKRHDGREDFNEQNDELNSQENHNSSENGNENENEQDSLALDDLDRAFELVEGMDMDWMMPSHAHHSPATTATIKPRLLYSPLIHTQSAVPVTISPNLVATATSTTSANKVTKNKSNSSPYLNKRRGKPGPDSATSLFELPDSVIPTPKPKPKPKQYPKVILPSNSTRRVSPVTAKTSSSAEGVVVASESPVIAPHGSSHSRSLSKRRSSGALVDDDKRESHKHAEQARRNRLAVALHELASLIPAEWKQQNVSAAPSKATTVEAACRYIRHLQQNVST
Experiment: relative binding free energy (BET-seq); higher = weaker binding
Conditions: reference: library average

| Sequence | relative binding free energy [kcal/mol] |
| --- | --- |
| GATCGCACGTGTTTTT | 0.12 |
| TTATTCACGTGCTTCG | 0.34 |
| TAGTCCACGTGTATGT | 0.06 |
| GTAGGCACGTGAGTCG | 0.17 |
| AGTGCCACGTGGGTAT | -0.28 |
| AGTGGCACGTGATTGC | -0.02 |
| TTTATCACGTGAATAA | 0.34 |
| AGGGTCACGTGTATCT | 0.09 |
| ATCTTCACGTGGTAGG | 0.08 |
| ATCTACACGTGAGGGG | 0.15 |
| TTTTGCACGTGTGTCG | 0.13 |
| AGGTTCACGTGGTTCG | 0.22 |
| GCTTGCACGTGTGTTA | 0.03 |
| TATGGCACGTGATTCT | -0.04 |
| TTTGACACGTGTGCGT | -0.07 |
| TCGCTCACGTGGTTGG | 0.2 |
| CGGTTCACGTGCTTTG | 0.41 |
| ATGTGCACGTGTACTT | 0.08 |
| TTAATCACGTGGCATT | 0.02 |
| TGGGTCACGTGCTTGC | 0.08 |

| Sequence | relative binding free energy [kcal/mol] |
| --- | --- |
| AGTATCACGTGAAGTG | 0.26 |
| TCAGTCACGTGTGTCG | 0.14 |
| GATTACACGTGGTCGG | 0.04 |
| GTGCCCACGTGGGGTG | -0.32 |
| GTGCGCACGTGGCGTT | -0.17 |
| TTGTTCACGTGAGCAT | 0.29 |
| CTTTGCACGTGATTGG | 0.09 |
| TGATTCACGTGCTGTA | 0.26 |
| TTATTCACGTGGAAAT | 0.36 |
| CTGTGCACGTGGGAGA | -0.05 |
| GTAGGCACGTGGACTT | -0.05 |
| TGCCGCACGTGTGGAG | -0.05 |
| CGAGTCACGTGGGGAG | 0.01 |
| GGAAGCACGTGGATGA | -0.01 |
| GTTGACACGTGAGGAT | 0.31 |
| TTAATCACGTGTGTAT | 0.14 |
| TGTGGCACGTGAGTGC | 0.12 |
| GTCGGCACGTGGAGGC | 0.12 |
| TAATTCACGTGTATAT | 0.27 |
| TCTGTCACGTGCGAGG | 0.19 |

| Sequence | relative binding free energy [kcal/mol] |
| --- | --- |
| TAGGTCACGTGTGAGA | 0.14 |
| ACTATCACGTGTAGTT | 0.15 |
| AGATACACGTGGTTAT | 0.04 |
| TGGTCCACGTGTTGGG | 0.07 |
| ATTGACACGTGGTGGC | 0.01 |
| AGATGCACGTGACGTG | 0.15 |
| TTTTACACGTGGGATA | -0.05 |
| TAACGCACGTGTAGGG | 0 |
| TGTACCACGTGTGTGT | -0.16 |
| GTAAGCACGTGAGAGG | 0.24 |
| AGTTTCACGTGTAGTA | 0.34 |
| AAGGGCACGTGGGTAG | -0.22 |
| CAGGACACGTGGGGGA | -0.09 |
| CTGTACACGTGGATAT | 0.19 |
| ATTGTCACGTGATGGA | 0.25 |
| GGATGCACGTGCCGGT | -0.02 |
| AGCAGCACGTGGTATG | -0.18 |
| GTGAACACGTGCTGTG | -0.11 |
